# Results published in the supplement of paper PMC8728848.
# This is one part of the list.
# B1: CBM13 2a (Mycobacterium tuberculosum), P64849 (protein)
# chain: DGPVQLKSRLGDVCLDAPSGSWFSPLVINPCNGTDFQRWNLTDDRQVESVAFPGECVNIGNALWARLQPCVNWISQHWTVQPDGLVKSDLDACLTVLGGPDPGTWVSTRWCDPNAPDQQWDSVPLEHHHHHH
# How the values were obtained:
# Assay in all cases: glycan array binding signal (z-score within array); higher = stronger binding
# Details in all cases: glycan notation: IUPAC condensed, linker removed
# [1] = molecular target: Neu5Ac(a2-3)Gal(b1-4)GlcNAc(b1-6)GalNAc
# How it was run: (§1)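 The binding signal is a Z-score computed within each array. Data were drawn from 3228 arrays in the Consortium for Functional Glycomics database, restricted to those with a known protein sequence. Scores were averaged over arrays of the same protein sequence at different concentrations or buffers, and over linkers, and negative values can be taken as non-binding.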
# [2] = molecular target: Neu5Ac(a2-3)Gal(b1-4)GlcNAc(b1-6)[Gal(b1-3)]GalNAc
# How it was run: as §1
# [3] = molecular target: Neu5Ac(a2-3)Gal(b1-4)GlcNAc(b1-6)[Neu5Ac(a2-3)Gal(b1-3)]GalNAc
# How it was run: as §1
# [4] = molecular target: Neu5Ac(a2-3)Gal(b1-4)GlcNAc6S
# How it was run: as §1
# [5] = molecular target: Neu5Ac(a2-3)Gal(b1-4)[Fuc(a1-3)]GlcNAc
# How it was run: as §1
# [6] = molecular target: Neu5Ac(a2-3)Gal(b1-4)[Fuc(a1-3)]GlcNAc(b1-2)Man
# How it was run: as §1
# [7] = molecular target: Neu5Ac(a2-3)Gal(b1-4)[Fuc(a1-3)]GlcNAc(b1-3)Gal
# How it was run: as §1
# [8] = molecular target: Neu5Ac(a2-3)Gal(b1-4)[Fuc(a1-3)]GlcNAc(b1-3)Gal(b1-4)GlcNAc
# How it was run: as §1
# [9] = molecular target: Neu5Ac(a2-3)Gal(b1-4)[Fuc(a1-3)]GlcNAc(b1-3)Gal(b1-4)[Fuc(a1-3)]GlcNAc(b1-3)Gal(b1-4)[Fuc(a1-3)]GlcNAc
# How it was run: as §1
# [10] = molecular target: Neu5Ac(a2-3)Gal(b1-4)[Fuc(a1-3)]GlcNAc(b1-3)GalNAc
# How it was run: as §1
# [11] = molecular target: Neu5Ac(a2-3)Gal(b1-4)[Fuc(a1-3)]GlcNAc(b1-6)[Gal(b1-3)]GalNAc
# How it was run: as §1
# [12] = molecular target: Neu5Ac(a2-3)Gal(b1-4)[Fuc(a1-3)]GlcNAc(b1-6)[Neu5Ac(a2-3)Gal(b1-3)]GalNAc
# How it was run: as §1
# [13] = molecular target: Neu5Ac(a2-3)Gal(b1-4)[Fuc(a1-3)]GlcNAc6S
# How it was run: as §1
# [14] = molecular target: Neu5Ac(a2-3)Gal6S(b1-4)GlcNAc
# How it was run: as §1
# [15] = molecular target: Neu5Ac(a2-3)Gal6S(b1-4)[Fuc(a1-3)]GlcNAc
# How it was run: as §1
# Neu5Ac(a2-3)GalNAc = molecular target: Neu5Ac(a2-3)GalNAc
# How it was run: as §1
# [16] = molecular target: Neu5Ac(a2-3)GalNAc(b1-4)GlcNAc
# How it was run: as §1
# [17] = molecular target: Neu5Ac(a2-3)[GalNAc(b1-4)]Gal(b1-4)Glc
# How it was run: as §1
# [18] = molecular target: Neu5Ac(a2-3)[GalNAc(b1-4)]Gal(b1-4)GlcNAc
# How it was run: as §1
# [19] = molecular target: Neu5Ac(a2-3)[GalNAc(b1-4)]Gal(b1-4)GlcNAc(b1-3)GalNAc
# How it was run: as §1
# [20] = molecular target: Neu5Ac(a2-3)[Neu5Ac(a2-6)]GalNAc
# How it was run: as §1
# Neu5Ac(a2-6)Gal = molecular target: Neu5Ac(a2-6)Gal
# How it was run: as §1
# [21] = molecular target: Neu5Ac(a2-6)Gal(b1-3)GlcNAc(b1-3)[Gal(b1-4)GlcNAc(b1-6)]Gal(b1-4)Glc
# How it was run: as §1
# Neu5Ac(a2-6)Gal(b1-4)Glc = molecular target: Neu5Ac(a2-6)Gal(b1-4)Glc
# How it was run: as §1
# [22] = molecular target: Neu5Ac(a2-6)Gal(b1-4)GlcNAc
# How it was run: as §1
# [23] = molecular target: Neu5Ac(a2-6)Gal(b1-4)GlcNAc(b1-2)Man
# How it was run: as §1
# [24] = molecular target: Neu5Ac(a2-6)Gal(b1-4)GlcNAc(b1-2)Man(a1-3)Man(b1-4)GlcNAc(b1-4)GlcNAc
# How it was run: as §1
# [25] = molecular target: Neu5Ac(a2-6)Gal(b1-4)GlcNAc(b1-2)Man(a1-3)[Gal(b1-4)GlcNAc(b1-2)Man(a1-6)]Man(b1-4)GlcNAc(b1-4)GlcNAc
# How it was run: as §1
# [26] = molecular target: Neu5Ac(a2-6)Gal(b1-4)GlcNAc(b1-2)Man(a1-3)[GlcNAc(b1-2)Man(a1-6)]Man(b1-4)GlcNAc(b1-4)GlcNAc
# How it was run: as §1
# [27] = molecular target: Neu5Ac(a2-6)Gal(b1-4)GlcNAc(b1-2)Man(a1-3)[GlcNAc(b1-4)][Neu5Ac(a2-6)Gal(b1-4)GlcNAc(b1-2)Man(a1-6)]Man(b1-4)GlcNAc(b1-4)GlcNAc
# How it was run: as §1
binder,measurement,setting,value
B1,glycan array binding signal (z-score),[1],-0.144
same,glycan array binding signal (z-score),[2],-0.152
same,glycan array binding signal (z-score),[3],-0.238
same,glycan array binding signal (z-score),[4],-0.251
same,glycan array binding signal (z-score),[5],-0.242
same,glycan array binding signal (z-score),[6],-0.181
same,glycan array binding signal (z-score),[7],-0.247
same,glycan array binding signal (z-score),[8],-0.198
same,glycan array binding signal (z-score),[9],0.61
same,glycan array binding signal (z-score),[10],-0.157
same,glycan array binding signal (z-score),[11],0.119
same,glycan array binding signal (z-score),[12],-0.045
same,glycan array binding signal (z-score),[13],-0.35
same,glycan array binding signal (z-score),[14],-0.122
same,glycan array binding signal (z-score),[15],-0.271
same,glycan array binding signal (z-score),Neu5Ac(a2-3)GalNAc,-0.365
same,glycan array binding signal (z-score),[16],-0.302
same,glycan array binding signal (z-score),[17],-0.042
same,glycan array binding signal (z-score),[18],-0.18
same,glycan array binding signal (z-score),[19],4.49
same,glycan array binding signal (z-score),[20],-0.233
same,glycan array binding signal (z-score),Neu5Ac(a2-6)Gal,-0.219
same,glycan array binding signal (z-score),[21],-0.273
same,glycan array binding signal (z-score),Neu5Ac(a2-6)Gal(b1-4)Glc,-0.207
same,glycan array binding signal (z-score),[22],-0.051
same,glycan array binding signal (z-score),[23],-0.293
same,glycan array binding signal (z-score),[24],-0.031
same,glycan array binding signal (z-score),[25],-0.051
same,glycan array binding signal (z-score),[26],0.122
same,glycan array binding signal (z-score),[27],-0.049
